One experiment concerns the target T1, huCD98hc ECD Avi-His (human, UniProt P08195 105-529).
T1 construct: biotinylated on the Avi tag where captured on streptavidin; also called Human CD98-AVI-His; Human CD98hc-AVI-His
T1 sequence: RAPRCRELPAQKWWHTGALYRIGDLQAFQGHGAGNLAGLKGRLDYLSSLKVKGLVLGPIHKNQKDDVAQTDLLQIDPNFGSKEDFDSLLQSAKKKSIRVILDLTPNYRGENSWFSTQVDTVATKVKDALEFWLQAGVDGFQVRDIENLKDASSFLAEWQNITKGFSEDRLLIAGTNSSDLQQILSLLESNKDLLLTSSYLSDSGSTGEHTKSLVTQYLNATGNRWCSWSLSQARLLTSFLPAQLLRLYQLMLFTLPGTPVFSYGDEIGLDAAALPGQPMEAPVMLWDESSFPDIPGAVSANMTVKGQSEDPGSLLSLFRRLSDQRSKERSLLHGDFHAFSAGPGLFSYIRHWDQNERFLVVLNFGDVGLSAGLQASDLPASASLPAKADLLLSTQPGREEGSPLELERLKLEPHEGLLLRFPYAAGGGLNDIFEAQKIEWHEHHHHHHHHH
Kind of experiment: SPR, Carterra LSA, antibody immobilized.

The target in a further experiment is T2, Cyno CD98hc ECD Avi-His (cynomolgus macaque, UniProt P08195 105-529 (human entry)).
T2 construct: biotinylated on the Avi tag where captured on streptavidin; also called Cyno CD98-AVI-His; Cyno CD98hc-AVI-His
T2 chain: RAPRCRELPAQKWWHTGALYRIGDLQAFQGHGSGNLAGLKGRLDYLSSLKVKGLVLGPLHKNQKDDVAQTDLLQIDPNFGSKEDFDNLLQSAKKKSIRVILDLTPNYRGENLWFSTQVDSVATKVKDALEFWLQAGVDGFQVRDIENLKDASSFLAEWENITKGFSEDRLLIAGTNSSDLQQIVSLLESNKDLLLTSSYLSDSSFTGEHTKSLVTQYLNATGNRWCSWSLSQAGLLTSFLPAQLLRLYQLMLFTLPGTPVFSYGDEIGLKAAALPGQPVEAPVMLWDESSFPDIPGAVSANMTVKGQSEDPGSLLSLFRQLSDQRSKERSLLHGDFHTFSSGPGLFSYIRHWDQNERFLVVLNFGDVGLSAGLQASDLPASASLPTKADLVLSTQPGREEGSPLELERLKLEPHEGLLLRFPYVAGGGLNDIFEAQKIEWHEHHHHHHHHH
The experiment in a line: SPR, Carterra LSA, antibody immobilized.

Experiment [1] addresses T3, human CD98hc endogenously expressed on HCMEC/D3 cells (human).
T3 construct: human brain endothelial cell line
T3 chain: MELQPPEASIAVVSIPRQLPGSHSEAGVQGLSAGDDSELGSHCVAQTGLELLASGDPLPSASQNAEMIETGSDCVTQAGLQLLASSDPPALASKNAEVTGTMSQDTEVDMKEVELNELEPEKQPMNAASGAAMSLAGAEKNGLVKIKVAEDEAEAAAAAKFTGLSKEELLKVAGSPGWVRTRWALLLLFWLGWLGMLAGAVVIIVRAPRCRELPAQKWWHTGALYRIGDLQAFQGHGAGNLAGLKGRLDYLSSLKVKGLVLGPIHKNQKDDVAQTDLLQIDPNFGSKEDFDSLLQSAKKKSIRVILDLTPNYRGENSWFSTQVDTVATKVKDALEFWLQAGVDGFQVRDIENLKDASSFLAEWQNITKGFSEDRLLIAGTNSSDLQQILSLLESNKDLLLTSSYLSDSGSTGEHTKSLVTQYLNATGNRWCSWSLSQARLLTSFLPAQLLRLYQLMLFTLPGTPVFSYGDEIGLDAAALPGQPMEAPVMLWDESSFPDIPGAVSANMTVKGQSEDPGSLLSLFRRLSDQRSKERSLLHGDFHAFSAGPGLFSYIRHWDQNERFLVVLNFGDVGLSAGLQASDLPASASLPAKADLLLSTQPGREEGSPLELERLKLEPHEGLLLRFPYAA
The experiment in a line: FACS, 5 ug/ml.

B1: CD98hc.03.031 (2+1 bispecific antibody) (bispecific antibody)
heavy 1: EVRLLESGGGLVQPGGSLRLSCAASGFTFSNYAMGWVRQAPGKGLEWVSAISGSGGSTYYADSVKGRFTTSRDDSKNALYLQMNSLRAEDTAVYYCARGGPGWYAADVWGQGTTVTVSSASTKGPSVFPLAPSSKSTSGGTAALGCLVKDYFPEPVTVSWNSGALTSGVHTFPAVLQSSGLYSLSSVVTVPSSSLGTQTYICNVNHKPSNTKVDKKV[here human IgG1 Fc with changes without letters]GGGGSGGGGSGGGGSQVQLQQSGAELVRPGVSVKISCKASGYTFTDYAMHWVKQSHAKSLEWIGVISTYYGDTTYNQKFKDKATMTVDKSSSTAYLELARLTSEDSAIYYCARVWLLSYAMDNWGQGTSVTVSSGGSEGKSSGSGSESKSTGGSDIVMTQSQRFMSTSVGDGVRITCKASQNVRTAVAWYQQKPGQSPKALINLAPNRHTGVPDRFTARGSGTDFTLTISNVQSEDLADYFCLQHWNYPLTFGAGTKLELK
heavy 2: EVRLLESGGGLVQPGGSLRLSCAASGFTFSNYAMGWVRQAPGKGLEWVSAISGSGGSTYYADSVKGRFTTSRDDSKNALYLQMNSLRAEDTAVYYCARGGPGWYAADVWGQGTTVTVSS[here human IgG1 constant region with changes without letters]
light: DIQMTQSPSSLSASVGDRVTITCRASQSISSYLNWYQQKPGKAPKLLIYAASSLQSGVPSRFSGSGSGTDFTLTISSLQPEDFATYYCQQADLPAFAFGGGTKVEIKRTVAAPSVFIFPPSDEQLKSGTASVVCLLNNFYPREAKVQWKVDNALQSGNSQESVTEQDSKDSTYSLSSTLTLSKADYEKHKVYACEVTHQGLSSPVTKSFNRGEC
As to B1, the Kd came to 68 nM with huCD98hc ECD Avi-His and 150 nM with Cyno CD98hc ECD Avi-His. Also, the “MFI fold-change relative to isotype hIgG1” value in experiment [1] was found to be 59.2.

B2: CD98hc.04.003 (2+1 bispecific antibody) (bispecific antibody)
heavy 1: EVRLLESGGGLVQPGGSLRLSCAASGFTFSNYAMGWVRQAPGKGLEWVSAISGSGGSTYYADSVKGRFTTSRDDSKNALYLQMNSLRAEDTAVYYCARGGPGWYAADVWGQGTTVTVSSASTKGPSVFPLAPSSKSTSGGTAALGCLVKDYFPEPVTVSWNSGALTSGVHTFPAVLQSSGLYSLSSVVTVPSSSLGTQTYICNVNHKPSNTKVDKKV[here human IgG1 Fc with changes without letters]GGGGSGGGGSGGGGSQVQLQQSGAELAKPGASLKMSCKASGYTFTDYYIHWVKQRPGQDLEWIGYINPNSAYTDSNQKFKDKATLTADKSSNTAYMQLSSLTSEDSAVYYCARKGHFYAPSFAYWGQGTLVTVSAGGSEGKSSGSGSESKSTGGSDIQMTQTTSSLSASLGDRVTISCRASQDISNYLNWYQQKPDGTVKLLIYYTSRLHSGVPSRFSGSGSGADYSLTISNLQQEDIATYFCQQGDTLPYTFGGGTKLEIE
heavy 2: EVRLLESGGGLVQPGGSLRLSCAASGFTFSNYAMGWVRQAPGKGLEWVSAISGSGGSTYYADSVKGRFTTSRDDSKNALYLQMNSLRAEDTAVYYCARGGPGWYAADVWGQGTTVTVSS[here human IgG1 constant region with changes without letters]
light: DIQMTQSPSSLSASVGDRVTITCRASQSISSYLNWYQQKPGKAPKLLIYAASSLQSGVPSRFSGSGSGTDFTLTISSLQPEDFATYYCQQADLPAFAFGGGTKVEIKRTVAAPSVFIFPPSDEQLKSGTASVVCLLNNFYPREAKVQWKVDNALQSGNSQESVTEQDSKDSTYSLSSTLTLSKADYEKHKVYACEVTHQGLSSPVTKSFNRGEC
Turning to B2, the Kd with huCD98hc ECD Avi-His came to 19 nM; in the experiment with Cyno CD98hc ECD Avi-His, 14 nM. The “MFI fold-change relative to isotype hIgG1” value in experiment [1] came out at 5.3.

B3: CD98hc.04.010 (2+1 bispecific antibody) (bispecific antibody)
heavy 1: EVRLLESGGGLVQPGGSLRLSCAASGFTFSNYAMGWVRQAPGKGLEWVSAISGSGGSTYYADSVKGRFTTSRDDSKNALYLQMNSLRAEDTAVYYCARGGPGWYAADVWGQGTTVTVSSASTKGPSVFPLAPSSKSTSGGTAALGCLVKDYFPEPVTVSWNSGALTSGVHTFPAVLQSSGLYSLSSVVTVPSSSLGTQTYICNVNHKPSNTKVDKKV[here human IgG1 Fc with changes without letters]GGGGSGGGGSGGGGSQVQLQQSGAELMKPGASVKISCKATGYTFSTYWIEWVKQRPGHGLEWIGEILPGSGTTTYNEKFKGKATFTADTSSNTAYMQLSSLTSEDSAVYYCARRTVYYRYEGIDYWGQGTTLTVSSGGSEGKSSGSGSESKSTGGSQIVLTQSPAIMSASPGEKVTITCSASSSVSYMFWFQQRPGTSPKLWIYTTSNLASGVPARFSGSGSGTSYSLTISRMEAEDAATYYCQQKNNYPFTFGSGTKLEIK
heavy 2: EVRLLESGGGLVQPGGSLRLSCAASGFTFSNYAMGWVRQAPGKGLEWVSAISGSGGSTYYADSVKGRFTTSRDDSKNALYLQMNSLRAEDTAVYYCARGGPGWYAADVWGQGTTVTVSS[here human IgG1 constant region with changes without letters]
light: DIQMTQSPSSLSASVGDRVTITCRASQSISSYLNWYQQKPGKAPKLLIYAASSLQSGVPSRFSGSGSGTDFTLTISSLQPEDFATYYCQQADLPAFAFGGGTKVEIKRTVAAPSVFIFPPSDEQLKSGTASVVCLLNNFYPREAKVQWKVDNALQSGNSQESVTEQDSKDSTYSLSSTLTLSKADYEKHKVYACEVTHQGLSSPVTKSFNRGEC
With B3, the Kd with huCD98hc ECD Avi-His was 21 nM; with Cyno CD98hc ECD Avi-His, 5.2 nM. Besides, in experiment [1], the “MFI fold-change relative to isotype hIgG1” value was 42.2.

B4: CD98hc.04.006 (2+1 bispecific antibody) (bispecific antibody)
heavy 1: EVRLLESGGGLVQPGGSLRLSCAASGFTFSNYAMGWVRQAPGKGLEWVSAISGSGGSTYYADSVKGRFTTSRDDSKNALYLQMNSLRAEDTAVYYCARGGPGWYAADVWGQGTTVTVSSASTKGPSVFPLAPSSKSTSGGTAALGCLVKDYFPEPVTVSWNSGALTSGVHTFPAVLQSSGLYSLSSVVTVPSSSLGTQTYICNVNHKPSNTKVDKKV[here human IgG1 Fc with changes without letters]GGGGSGGGGSGGGGSEVNLVESGGDLVQPGGSLRLSCATSGFTFTDYFMSWVRQPPGKALEWLGFIRNKAYGYTTEYSASVKGRFTISRDNSQSIFYLQMNTLRLEDSATYYCARGPFISTAPFAYWGQGTLVTVSAGGSEGKSSGSGSESKSTGGSDIVMSQSPSSLAVSVGETVTMSCKSSQSLLYSSNQKNYLAWYQQKPGQSPKLLIYWGSTRESGVPDRFTGSGSGTDFTLTISSVKAEDLAVYYCQHYYGYPWTFGGGTKLEIK
heavy 2: EVRLLESGGGLVQPGGSLRLSCAASGFTFSNYAMGWVRQAPGKGLEWVSAISGSGGSTYYADSVKGRFTTSRDDSKNALYLQMNSLRAEDTAVYYCARGGPGWYAADVWGQGTTVTVSS[here human IgG1 constant region with changes without letters]
light: DIQMTQSPSSLSASVGDRVTITCRASQSISSYLNWYQQKPGKAPKLLIYAASSLQSGVPSRFSGSGSGTDFTLTISSLQPEDFATYYCQQADLPAFAFGGGTKVEIKRTVAAPSVFIFPPSDEQLKSGTASVVCLLNNFYPREAKVQWKVDNALQSGNSQESVTEQDSKDSTYSLSSTLTLSKADYEKHKVYACEVTHQGLSSPVTKSFNRGEC
Turning to B4, the Kd with huCD98hc ECD Avi-His amounted to 18 nM; with Cyno CD98hc ECD Avi-His, 12 nM. In experiment [1], the “MFI fold-change relative to isotype hIgG1” value worked out at 80.5.

Values taken from patent US20250270341A1 (Alector, published 2025).
